Data: PubChem BioAssay AID588342 (National Center for Advancing Translational Sciences (NCATS), 2011)
The campaign covered roughly 360,000 compounds. About 25,000 (6.9%) were called active. Inconclusive results, whose numbers are uncertain, are shown with a selection of clear calls. Calls come from the whole dose curve; as a rule, active = well fitted inhibition curve with a large enough effect; inconclusive = small, poorly fitted or top-dose-only effect; inactive = flat fitted curve, though single readings scatter. Potencies of inconclusive entries are doubtful fits and often do not repeat.

What follows are molecules tested against Luciferin 4-monooxygenase (Photinus pyralis) (UniProt P08659) (assay: qHTS profiling assay for firefly luciferase inhibitor/activator using purifed enzyme and Km concentrations of substrates (counterscreen for miR-21 project)). Conditions: purified FLuc, luminescence inhibition; series mostly up to 57.5 µM.
Outline: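 Purified P. pyralis luciferase (10nM final) with 10uM D-luciferin and 10uM ATP (Km levels) in 50mM Tris acetate pH 7.5, 10mM Mg acetate, 0.01% Tween-20, 0.05% BSA; qHTS 6-point titration, ~60 µM downward; luminescence read.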
Note: nearly all actives have a fitted effect of over 55% in size.
Potency is the fitted concentration of half-maximal effect; tags give direction and shape of the fitted curve.

Chain of UniProt P08659 (P08659 whole entry, looked up): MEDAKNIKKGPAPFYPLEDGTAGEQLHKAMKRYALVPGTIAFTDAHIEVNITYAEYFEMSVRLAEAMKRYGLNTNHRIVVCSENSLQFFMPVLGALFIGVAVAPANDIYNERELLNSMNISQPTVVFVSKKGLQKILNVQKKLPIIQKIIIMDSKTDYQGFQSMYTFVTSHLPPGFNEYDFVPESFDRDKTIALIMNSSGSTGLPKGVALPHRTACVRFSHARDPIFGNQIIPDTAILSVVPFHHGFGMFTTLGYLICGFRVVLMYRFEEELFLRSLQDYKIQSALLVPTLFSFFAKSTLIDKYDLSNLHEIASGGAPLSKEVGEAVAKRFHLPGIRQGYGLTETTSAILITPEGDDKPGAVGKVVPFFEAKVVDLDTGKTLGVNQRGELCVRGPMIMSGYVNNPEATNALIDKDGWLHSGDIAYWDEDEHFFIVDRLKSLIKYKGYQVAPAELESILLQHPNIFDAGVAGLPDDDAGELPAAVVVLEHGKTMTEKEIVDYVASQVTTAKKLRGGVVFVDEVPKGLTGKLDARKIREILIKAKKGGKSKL

Row | SMILES | Potency
1 | CCCOc1ccc(-c2csc(N)n2)cc1[N+](=O)[O-] | active: 10.7 µM
2 | COc1ccc(N2CCN(C(=O)CSc3nnc(-c4ccc5[nH]c(C)c(C)c5c4)o3)CC2)cc1 | inconclusive: 6.01 µM [inhibitor, full curve]
3 | O=C(O)CCCNc1c(C(=O)Nc2ccc(Cl)cc2)cc([N+](=O)[O-])cc1[N+](=O)[O-] | inconclusive: 23.9 µM [inhibitor, partial curve, poor fit]
4 | O=C(Nc1ccccc1)Nc1cccc(C(F)(F)F)c1 | inconclusive: 3.01 µM [inhibitor, full curve]
5 | C/C(N)=C(/C#N)C(=O)CSc1nnc(Nc2cccc(C)c2C)s1 | active: 16.9 µM
6 | CCN1CCN(c2oc(-c3ccc(COc4ccccc4C)o3)nc2C#N)CC1 | inactive
7 | CCCNC(=O)c1ccc2c(c1)nc1n2CCCCC1 | active: 16.9 µM
8 | NNC(=O)c1n[nH]c2c1CC(C1CCCCC1)CC2 (stereo not drawn) | inconclusive: 19 µM [inhibitor, single point]
9 | Cc1cc(C(=O)Nc2sc3c(c2C#N)CCC(C)C3)cs1 (stereo not drawn) | inconclusive: 0.675 µM [inhibitor, full curve]
10 | CCOc1c(Cl)cc(CNc2ccc(N3CCCC3)cc2)cc1OC | inconclusive: 16.9 µM [inhibitor, partial curve]
11 | CC(C)(C)OC(=O)N1CCC(c2c(C(=O)NC3CCCCC3)cnn2-c2ccc(F)cc2F)CC1 | inactive
12 | Cc1cc(C)c(NC(=O)Nc2ccc3c(c2)OCO3)c(C)c1 | inconclusive: 16.9 µM [inhibitor, partial curve]
13 | Nc1c2c(nc3ccc(Br)cc13)N(Cc1ccccc1)CC2 | active: 16.9 µM
14 | CC1=N/C(=C/c2cc(Br)cc(Br)c2O)C(=O)O1 | inactive
15 | CCOC(=O)C(=O)c1c(C)cc2ccccn12 | inconclusive: 30.1 µM [inhibitor, single point]
16 | Cc1cccc(S(=O)(=O)c2cn(Cc3ccccc3)c3cc(N4CCCCC4)c(F)cc3c2=O)c1 | inactive
17 | CCCCCCCNc1cccc(C)c1 | inconclusive: 37.9 µM [inhibitor, partial curve, poor fit]
18 | Cc1cccc(C)c1NC(=O)C1CCCN1S(=O)(=O)c1ccc2c(c1)n(C)c(=O)c(=O)n2C (stereo not drawn) | inactive
19 | COc1ccccc1N1CCN(C(=O)CN2C(=O)COc3ccc(S(=O)(=O)N4CCOCC4)cc32)CC1 | inactive
20 | COc1ccc(C(c2sc3ncnn3c2O)N2CCN(c3ccccc3F)CC2)cc1OC (stereo not drawn) | active: 7.57 µM
21 | O=C(NCCc1c[nH]c2ccccc12)c1ccc(F)cc1F | active: 12 µM
22 | Cc1cc(NC(=O)Cc2ccccc2)cc(-c2nc3ccccc3o2)c1O | inactive
23 | COc1ccc(N2C(=O)C(Cl)=C(Nc3ccccc3O)C2=O)cc1 | inconclusive: 21.3 µM [inhibitor, single point]
24 | O=C(Nc1ccc(S(=O)(=O)Nc2nccs2)cc1)c1cc(-c2ccncc2)nc2ccccc12 | inactive

Row | SMILES | Potency
25 | CCCCn1c(/N=C/c2ccc(N(C)C)cc2)nc2ccccc21 | active: 1.9 µM
26 | Cn1nnc2cc(C(=O)NCc3ccco3)ccc21 | inactive
27 | CC(=O)c1ccc(N2CCN(C(=O)c3cc(-c4ccncc4)nc4ccc(Br)cc34)CC2)cc1 | inconclusive: 12 µM [inhibitor, partial curve, poor fit]
28 | N#Cc1c(-c2ccccc2)cc(-c2ccccc2)nc1SCC(O)CS(=O)(=O)Cc1ccc(Cl)cc1 (stereo not drawn) | inconclusive: 9.53 µM [inhibitor, partial curve, poor fit]
29 | COc1ccc(-n2nc([N+](=O)[O-])c(=NCc3ccco3)n2O)cc1 | inconclusive: 5.36 µM [inhibitor, partial curve, poor fit]
30 | COc1cc(C(=O)Nc2cccc(-c3nnc(-c4ccco4)o3)c2)ccc1OC(C)=O | active: 15.1 µM
31 | Nc1ncnc2nc(SCC(=O)Nc3cccc(C(F)(F)F)c3)[nH]c12 | inconclusive: 21.3 µM [inhibitor, partial curve]
32 | Cc1csc(=O)n1CCC(=O)OCc1nnc(-c2ccc(Cl)cc2)o1 | inconclusive: 37.9 µM [inhibitor, partial curve, poor fit]
33 | O=C(NCCCNC(=O)c1ccco1)c1ccc(Cl)cc1 | inactive
34 | O=S(=O)(N/N=C/c1ccc2c(c1)OCCO2)c1ccc(Cl)cc1 | inconclusive: 30.1 µM [inhibitor, single point]
35 | COc1ccc(C(=O)Nc2nnc(Cc3ccccc3)s2)c(OC)c1 | inconclusive: 2.39 µM [inhibitor, partial curve, poor fit]
36 | O=C(Nc1cccc(-c2nc3ccccc3s2)c1)c1cc(-n2cnnc2)ccc1Cl | active: 6.75 µM
37 | COc1cccc(NC(=O)COC(=O)c2ccco2)c1 | inconclusive: 8.49 µM [inhibitor, partial curve]
38 | Cc1ccc(CSc2cn(CC(=O)N3CCCCCC3)c3ccccc23)cc1 | inconclusive: 9.53 µM [inhibitor, partial curve, poor fit]
39 | Cc1cc(CN(C)C(=O)c2cc(COc3ccc(C)c(C)c3)on2)on1 | active: 12 µM
40 | COc1ccc(N=C2NC(=O)/C(=C/C=C/c3ccccc3)S2)cc1 | inconclusive: 3.38 µM [inhibitor, partial curve, poor fit]
41 | CS(=O)(=O)c1nsc2nc(=O)c(/C=C3\C=Nc4ccccc43)c(N)n12 | active: 15.1 µM
42 | O=C(/C=C\c1cn(-c2ccccc2)nc1-c1cccs1)N1CCOCC1 | active: 7.57 µM
43 | O=S(=O)(NCc1ccc(F)cc1)c1ccc(N2CCCCS2(=O)=O)cc1 | inactive
44 | Cc1cc2ncc(-c3ccccc3)nc2cc1C | active: 0.601 µM
45 | COc1ccc(OC)c(CCNC(=O)CCCn2c(=O)c3cccn3c3ccc(F)cc32)c1 | inactive
46 | CN(C(=O)c1cccnc1)c1nnc(-c2ccccn2)s1 | active: 19 µM
47 | COc1ccc2c(c1)CC/C(=C\c1ccc(C)o1)C2=O | active: 2.39 µM
48 | O=C(NCc1ccccn1)c1n[nH]c2ccccc12 | inconclusive: 26.9 µM [inhibitor, single point]
